# Results reported in PubChem BioAssay (Tox21).
# Several values for one entry are separate records, joined by “and”; a condition that tells them apart may be missing. Identical values can stand only once. Inconclusive results, whose numbers are uncertain, are shown with a selection of clear calls. For part of these data: Where the call is inconclusive, the potency comes from a doubtful curve fit. Activity calls are given as the source filed them. Unless noted, the call rests on the fitted dose curve; in most records, active means well fitted curve in the direction sought with a large enough effect in the repeat runs; inconclusive means weak or mixed curves; inactive means no such curve, though single readings can be large; an effect the other way counts as inactive or inconclusive.
# How the values were obtained:
# [1] = qHTS assay to identify small molecule agonists of H2AX - cell viability counter screen (AID 1224847; calls by dose curve; further: potency means the concentration at half of the fitted maximal effect; nearly all actives have a fitted effect of over 30% in size); details: CHO-K1 viability, CellTiter-Glo luminescence, 3 h; series mostly up to 154 µM
# Procedure, shortened: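 CHO-K1 wt, 1000 cells/well, o/n 37C; cpds 15 conc, 3 h 37C, 0.76% DMSO; CellTiter-Glo, 30 min RT, luminescence.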
# [2] = A CellTox Green Cytotoxicity Assay to monitor cytotoxicity in HEK293 cells - 40 hour (AID 1224871); details: CellTox Green fluorescence; series mostly up to 76.8 µM; further: potency means the concentration at half of the fitted maximal effect; nearly all actives have a fitted effect of over 45% in size
# Procedure, shortened: (§1)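 Cytotoxicity was tracked continuously in HEK293 cells by a DNA-binding dye excluded from viable cells. Compounds were transferred in DMSO 5 h after seeding; fluorescence was recorded at intervals up to 40 h.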
# [3] = qHTS RealTime-Glo MT Cell Viability Assay in HEK293 cells - 40 hour (AID 1224874); details: RealTime-Glo luminescence; max response: active compounds read low; further: on the % scale 0 is the no-effect control and ±100 the full control effect; nearly all actives have a fitted effect of over 50% in size
# Procedure, shortened: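 Nonlytic bioluminescent viability monitoring. HEK293 at 600 cells/well with reagent; 5 h settle; compound transfer by pintool; plates held at 37 C and read at set time points.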
# [4] = A CellTox Green Cytotoxicity Assay to monitor cytotoxicity in HEK293 cells - 24 hour (AID 1224875); details: CellTox Green fluorescence; series mostly up to 76.8 µM; further: potency means the concentration at half of the fitted maximal effect; nearly all actives have a fitted effect of over 45% in size
# Procedure, shortened: as §1
# [5] = A CellTox Green Cytotoxicity Assay to monitor cytotoxicity in HepG2 cells - 16 hour (AID 1224876); details: CellTox Green fluorescence; series mostly up to 35.3 µM; further: potency means the concentration at half of the fitted maximal effect; nearly all actives have a fitted effect of over 45% in size
# Procedure, shortened: (§2)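 Real-time, homogeneous cytotoxicity readout: dead-cell DNA staining by CellTox Green in HepG2 monolayers, fluorescence measured at timed intervals up to 40 h of continuous compound exposure.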
# [6] = A CellTox Green Cytotoxicity Assay to monitor cytotoxicity in HepG2 cells - 40 hour (AID 1224879); details: CellTox Green fluorescence; series mostly up to 76.8 µM; further: potency means the concentration at half of the fitted maximal effect; nearly all actives have a fitted effect of over 40% in size
# Procedure, shortened: as §2
# [7] = A CellTox Green Cytotoxicity Assay to monitor cytotoxicity in HEK293 cells - 32 hour (AID 1224881); details: CellTox Green fluorescence; series mostly up to 76.8 µM; further: potency means the concentration at half of the fitted maximal effect; nearly all actives have a fitted effect of over 40% in size
# Procedure, shortened: as §1
# [8] = qHTS RealTime-Glo MT Cell Viability Assay in HepG2 cells - 40 hour (AID 1224870); details: RealTime-Glo luminescence; series mostly up to 76.8 µM; further: nearly all actives have a fitted effect of over 50% in size; further: potency means the concentration at half of the fitted maximal effect
# Procedure, shortened: (§3)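 Real-time viability: cells seeded at 600 per well together with NanoLuc and cell-permeant prosubstrate, compounds added after 5 h incubation. Luminescence tracked at 0, 8, 16, 24, 32 and 40 h of exposure.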
# [9] = qHTS RealTime-Glo MT Cell Viability Assay in HepG2 cells - 24 hour (AID 1224867); details: RealTime-Glo luminescence; series mostly up to 76.8 µM; further: potency means the concentration at half of the fitted maximal effect; nearly all actives have a fitted effect of over 50% in size
# Procedure, shortened: (§4)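 Luminescence read-out: viable HepG2 cells reduce a prosubstrate to a NanoLuc substrate, giving a signal proportional to live cell number. Reads taken at 0, 8, 16, 24, 32 and 40 h of compound exposure at 37 C.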
# [10] = qHTS RealTime-Glo MT Cell Viability Assay in HepG2 cells - 8 hour (AID 1224873); details: RealTime-Glo luminescence; series mostly up to 76.8 µM; further: potency means the concentration at half of the fitted maximal effect; nearly all actives have a fitted effect of over 55% in size
# Procedure, shortened: as §3
# [11] = qHTS RealTime-Glo MT Cell Viability Assay in HepG2 cells - 32 hour (AID 1224877); details: RealTime-Glo luminescence; series mostly up to 76.8 µM; further: nearly all actives have a fitted effect of over 55% in size; further: potency means the concentration at half of the fitted maximal effect
# Procedure, shortened: as §4
# Tags describe the fitted curve by direction and shape.
smiles,measurement,setting,value
Cc1cc(O)c(Cl)c(C)c1Cl,Potency,[1],active: 101 µM
same,Potency,[2],"inconclusive: 54.9 µM [activator, single point]"
same,max response,[3],inactive: -27.6%
same,Potency,[4],"inconclusive: 54.9 µM [activator, single point]"
same,Potency,[5],"inconclusive: 54.9 µM [activator, single point]"
same,Potency,[6],active: 49 µM
same,Potency,[7],"inconclusive: 54.9 µM [activator, single point]"
CCOC(=O)[C@H](CCc1ccccc1)N[C@@H](C)C(=O)N1Cc2ccccc2C[C@H]1C(=O)O,Potency,[8],inactive
COc1ccc2[nH]cc(CCNC(C)=O)c2c1,Potency,[9],"inconclusive: 21.9 µM [falling, single point]"
same,Potency,[8],"inconclusive: 21.9 µM [falling, single point]"
same,Potency,[2],"inconclusive: 19.5 µM [activator, partial curve]"
same,Potency,[10],"inconclusive: 21.9 µM [falling, single point]"
same,max response,[3],inactive: -2.36% and inactive: -20% and inactive: 4.03%
same,Potency,[4],"inconclusive: 19.5 µM [activator, single point]"
same,Potency,[11],"inconclusive: 21.9 µM [cytotoxic, single point]"
same,Potency,[7],"inconclusive: 19.5 µM [activator, single point]"
Cc1cc2nc3c(=O)[nH]c(=O)nc-3n(C[C@H](O)[C@H](O)[C@H](O)CO)c2cc1C,Potency,[8],inactive
Cn1cnc2c1c(=O)[nH]c(=O)n2C,Potency,[11],inactive
